{
  "source": "PubChem BioAssay AID624296",
  "about": "(National Center for Advancing Translational Sciences (NCATS), 2012)",
  "note": "Among all 350,000 compounds or so, about 9,900 (2.8%) were called active. The shares of active, inactive and inconclusive entries below differ from those in the screen. Calls follow the shape of the dose curve; as a rule, active = well fitted activation curve with a large enough effect; inconclusive = small, poorly fitted or top-dose-only effect; inactive = no such curve, though single readings can be large or run the other way. No potency is given beside an inconclusive call; the fits are too rough. Potency is read from the fitted curve at half-maximal effect; tags tell the direction and shape of the fitted curve.",
  "data": [
    {"test": "A quantitative high throughput screen for small molecules that induce DNA re-replication in MCF 10a normal breast cells; also: nearly all actives have a fitted effect of over 50% in size; as to activity, positive = re-replication: % of control where 0% means no effect.", "settings": "MCF 10A DNA re-replication, Hoechst nuclear intensity, 48 h; activity, positive = re-replication: at 46.1 µM (top of the series)", "values": [
      {"smiles": "O=C1CCC/C1=c1\\s/c(=C\\c2cccnc2)c(=O)n1-c1ccccc1", "activity, positive = re-replication": "inactive: 7.76%"},
      {"smiles": "CCn1ncc(C2=NOC(C(=O)Nc3ccccc3C(=O)OC)C2)c1C", "note": "(stereo not given)", "Potency": "inconclusive [activator, partial curve]"},
      {"smiles": "O=C(Nc1ccccn1)c1ccc(Cl)c([N+](=O)[O-])c1", "Potency": "inconclusive [activator, single point]"},
      {"smiles": "O=C(COC(=O)c1ccccc1NCCO)NNC(=O)c1cccs1", "activity, positive = re-replication": "inactive: -14.5%"},
      {"smiles": "Cc1ccccc1C(=O)NC1CCN(Cc2nnnn2C2CCCC2)CC1", "activity, positive = re-replication": "inactive: 15.7%"},
      {"smiles": "O=c1c2c3c(sc2n(CCN2CCCC2)c(=O)n1Cc1ccccc1)CCCCC3", "Potency": "inconclusive [activator, single point]"},
      {"smiles": "COc1ccc(CN2CCCCC2C(=O)Nc2ccc(OC)c(OCC(C)C)c2)cc1OC", "note": "(stereo not given)", "Potency": "inconclusive [activator, full curve, poor fit]"},
      {"smiles": "Cc1n[nH]c(C)c1S(=O)(=O)N1CCCC(C(=O)NCc2ccc(F)cc2)C1", "note": "(stereo not given)", "Potency": "active: 0.731 µM"},
      {"smiles": "O=C1N/C(=C/c2ccc(Br)cc2)C(O)=C1C=NCc1ccccc1", "Potency": "inconclusive [activator, full curve]"},
      {"smiles": "CCN1CCc2nc3sc(C(=O)N4CCc5ccccc5C4)c(N)c3cc2C1", "Potency": "active: 18.4 µM"},
      {"smiles": "Cc1cccc(N2CCN(C(=O)c3cc(S(=O)(=O)N4CCCC4)cn3C)CC2)c1C", "Potency": "active: 8.2 µM"},
      {"smiles": "CN(C(=O)COC(=O)c1c2c(nc3ccccc13)/C(=C/c1cccc([N+](=O)[O-])c1)CCC2)C1CCS(=O)(=O)C1", "note": "(stereo not given)", "Potency": "inconclusive [activator, single point]"},
      {"smiles": "CN(C)C(CNC(=O)c1cc2ccccc2o1)c1ccccc1", "note": "(stereo not given)", "Potency": "inconclusive [activator, partial curve, poor fit]"},
      {"smiles": "C[C@@H](C(=O)CC(=O)OC(C)(C)C)[C@@H](O)c1ccccc1", "activity, positive = re-replication": "inactive: -4.97%"},
      {"smiles": "COc1cc(CC(=O)NCCc2ccc(OCc3ccccc3)cc2)c([N+](=O)[O-])cc1OC", "Potency": "inconclusive [activator, partial curve, poor fit]"},
      {"smiles": "COc1ccccc1CC(=O)Nc1ccc([N+](=O)[O-])cc1O", "Potency": "inconclusive [activator, single point]"},
      {"smiles": "CCOc1ccc2nc(SCC(=O)Nc3cc(C)on3)c(C)cc2c1", "Potency": "inconclusive [activator, single point]"},
      {"smiles": "O=C(Oc1cc(=O)oc2c1c(=O)n1c3c(cccc23)CC1)c1ccccc1", "Potency": "inconclusive [activator, partial curve, poor fit]"},
      {"smiles": "O=C1/C(=C/c2cccs2)Sc2ccccc21", "Potency": "inconclusive [activator, partial curve]"},
      {"smiles": "COC(=O)Nc1ccc2ccc3c(NC(=O)OC)ccc4ccc1c2c43", "Potency": "active: 20.6 µM"},
      {"smiles": "O=C(NCCC1CCCCN1S(=O)(=O)c1ccccc1)C(=O)Nc1ccccc1", "note": "(stereo not given)", "Potency": "inconclusive [activator, partial curve]"},
      {"smiles": "CC(Sc1nnc(C2CC2)n1C1CC1)C(=O)c1ccc(F)cc1", "note": "(stereo not given)", "activity, positive = re-replication": "inactive: -1.73%"},
      {"smiles": "CC(=O)c1cccc(NS(=O)(=O)c2ccc3c(c2)oc(=O)n3C)c1", "activity, positive = re-replication": "inactive: 1.26%"},
      {"smiles": "COc1ccc(OC)c(CCNC(=O)c2ccc(CS(=O)Cc3ccc(Cl)cc3)o2)c1", "note": "(stereo not given)", "activity, positive = re-replication": "inactive: 2.38%"},
      {"smiles": "Cc1cc(C)cc(NC(=O)[C@@H](NC(=O)c2ccco2)C(C)C)c1", "activity, positive = re-replication": "inactive: -1.37%"},
      {"smiles": "CCOc1ccc(N2CCc3c(C)nc(SC)nc32)cc1", "Potency": "inconclusive [activator, single point]"},
      {"smiles": "Cc1ccc2c(c1)N(S(=O)(=O)c1cc(-c3onc(C)c3C)ccc1C)CCO2", "activity, positive = re-replication": "inactive: 6.34%"},
      {"smiles": "O=C(CNc1cccc([N+](=O)[O-])c1)N/N=C/c1ccc([N+](=O)[O-])o1", "Potency": "inconclusive [activator, single point]"},
      {"smiles": "O=C1/C(=C/c2ccc(O)cc2)SC(=S)N1CC1CCCO1", "note": "(stereo not given)", "Potency": "inconclusive [activator, single point]"},
      {"smiles": "CCOc1cc(-c2conc2N)cc(OCC)c1OCC", "Potency": "inconclusive [activator, single point]"},
      {"smiles": "Cc1cc(C(=O)N2CCN(Cc3ccc4c(c3)OCO4)CC2)cs1", "Potency": "inconclusive [activator, single point]"},
      {"smiles": "O=C1CCCCC1C(Nc1ccc(Br)cc1)c1ccccc1", "note": "(stereo not given)", "Potency": "inconclusive [activator, single point]"},
      {"smiles": "COc1cccc(N2CCN(Cc3nc(N)nc(N4CCCc5ccccc54)n3)CC2)c1", "Potency": "inconclusive [activator, single point]"},
      {"smiles": "C=CCSc1nc(-c2ccccc2)c(C#N)c(=O)[nH]1", "activity, positive = re-replication": "inactive: 2.31%"},
      {"smiles": "CCCCCCOc1ccc(/C=c2\\s/c(=C(/C#N)C(=O)NCc3ccco3)n(-c3ccccc3)c2=O)cc1", "Potency": "inconclusive [activator, partial curve, poor fit]"},
      {"smiles": "O=C(Nc1nnc(C2=COCCO2)o1)c1ccc(S(=O)(=O)N2CCOCC2)cc1", "activity, positive = re-replication": "inactive: 18.7%"},
      {"smiles": "Nc1cc2cccnc2cc1Cl", "activity, positive = re-replication": "inactive: -0.057%"},
      {"smiles": "CCN(CC)c1ccc(/C=N/NC(=O)Nc2ccccc2)cc1", "Potency": "inconclusive [activator, single point]"},
      {"smiles": "O=C(c1ccc(Cl)c(S(=O)(=O)N2CCOCC2)c1)N1CCN(c2ccccc2)CC1", "Potency": "inconclusive [activator, partial curve, poor fit]"},
      {"smiles": "O=C1C=C(c2ccc3ccccc3c2)C[C@@H](c2ccc(Cl)cc2)C1", "activity, positive = re-replication": "inactive: 28.4%"},
      {"smiles": "CN(Cc1ccccc1)C(=O)COC(=O)c1cc(-c2ccc(Cl)s2)nc2ccccc12", "Potency": "inconclusive [activator, single point]"},
      {"smiles": "CCOC(=O)c1c(-c2ccc(OC)cc2)csc1/N=C/N(C)C", "activity, positive = re-replication": "inactive: 8.59%"},
      {"smiles": "O=[N+]([O-])c1ccc(F)c(N=Cc2ccc(Br)s2)c1", "Potency": "inconclusive [activator, partial curve]"},
      {"smiles": "Cn1c(SCCOc2ccccc2F)nc2ccccc2c1=O", "Potency": "inconclusive [activator, single point]"},
      {"smiles": "Cc1ccc(NC(=O)c2ccc(S(=O)(=O)N3CCCC3)cc2)nc1", "Potency": "inconclusive [activator, full curve, poor fit]"}
    ]}
  ]
}
